# Laboratory results as given in the BET-seq Pho4 binding data (Le et al. 2018).
# Some of the results follow. Values were computed here from the reads of four pooled replicates and scatter widely.
# Target: T1, Pho4 (S. cerevisiae) (UniProt P07270)
# T1 sequence: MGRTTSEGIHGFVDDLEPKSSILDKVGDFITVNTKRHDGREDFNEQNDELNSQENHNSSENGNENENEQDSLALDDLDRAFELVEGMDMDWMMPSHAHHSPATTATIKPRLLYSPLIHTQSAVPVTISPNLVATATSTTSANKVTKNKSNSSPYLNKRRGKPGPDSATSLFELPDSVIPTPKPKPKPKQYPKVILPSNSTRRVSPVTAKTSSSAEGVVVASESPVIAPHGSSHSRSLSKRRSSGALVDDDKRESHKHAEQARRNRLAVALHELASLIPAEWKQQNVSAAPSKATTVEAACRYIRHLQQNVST
# Experiment: relative binding free energy (BET-seq); higher = weaker binding
# Conditions: reference: library average
row,Sequence,relative binding free energy
1,AGGCTCACGTGGGCGT,-0.03 kcal/mol
2,GGGTGCACGTGAGAGG,0.17 kcal/mol
3,TGTATCACGTGCAGTT,0.16 kcal/mol
4,TCGGTCACGTGACGGG,0.2 kcal/mol
5,TAGAACACGTGGGTGG,-0.15 kcal/mol
6,GTTTGCACGTGGTCAA,-0.09 kcal/mol
7,TTTTACACGTGAATAG,0.33 kcal/mol
8,GTGGCCACGTGTTGCG,-0.13 kcal/mol
9,GATTCCACGTGGAGGT,0.22 kcal/mol
10,TTACTCACGTGAAGGG,0.47 kcal/mol
11,AGTGTCACGTGTTTTC,0.01 kcal/mol
12,AGGCGCACGTGTAGGG,-0.05 kcal/mol
13,AGAATCACGTGGCGTT,0.11 kcal/mol
14,TGGTGCACGTGGGACA,-0.16 kcal/mol
15,TGATTCACGTGGAAAT,0.47 kcal/mol
16,TTAAGCACGTGGTGTG,-0.16 kcal/mol
17,GTGGGCACGTGGACAT,-0.07 kcal/mol
18,GGGCCCACGTGAAGGG,0.15 kcal/mol
19,TGATTCACGTGCGATT,0.34 kcal/mol
20,TTTGACACGTGAGAGG,0.23 kcal/mol
21,GTGATCACGTGAAATG,0.36 kcal/mol
22,CGATACACGTGAGGTT,0.52 kcal/mol
23,TGATACACGTGGGACG,0 kcal/mol

row,Sequence,relative binding free energy
1,CGGAGCACGTGTGGAG,-0.17 kcal/mol
2,GTGGTCACGTGTCATG,0.16 kcal/mol
3,AGAGTCACGTGTTCGT,0.04 kcal/mol
4,GGGTTCACGTGTTCGT,0.35 kcal/mol
5,TATGTCACGTGGGTGC,-0.1 kcal/mol
6,TAGGGCACGTGAATTA,0.23 kcal/mol
7,TTACACACGTGTTTGA,-0.05 kcal/mol
8,TGGTGCACGTGCAGGA,-0.11 kcal/mol
9,TGCGTCACGTGTTTCT,0.11 kcal/mol
10,GGAGGCACGTGAGTGC,0.21 kcal/mol
11,AAGTTCACGTGCTAGG,0.21 kcal/mol
12,TGTGGCACGTGGCATT,-0.15 kcal/mol
13,CGATACACGTGGGCGT,-0.02 kcal/mol
14,CTTGGCACGTGGGCGC,-0.18 kcal/mol
15,GACTGCACGTGGGGCG,-0.09 kcal/mol
16,GGGGACACGTGCTTTA,-0.03 kcal/mol
17,ACCTGCACGTGGGTTT,-0.1 kcal/mol
18,AGTGGCACGTGATAAG,0.1 kcal/mol
19,TTTTTCACGTGTGGAC,0.39 kcal/mol
20,TTCAGCACGTGGAGAT,0.01 kcal/mol
21,CGAGTCACGTGTGTCT,0.15 kcal/mol
22,TTAAGCACGTGATTTC,0.11 kcal/mol
23,TTTGACACGTGATCGG,-0.03 kcal/mol

row,Sequence,relative binding free energy
1,TCGTTCACGTGCGTTA,0.2 kcal/mol
2,CGGTACACGTGATAGT,0.3 kcal/mol
3,CAGGGCACGTGTTATT,-0.04 kcal/mol
4,GGTTACACGTGGAGAG,0.14 kcal/mol
5,CGGTTCACGTGGTGGT,0.2 kcal/mol
6,GATGCCACGTGTGGTG,0.1 kcal/mol
7,GATATCACGTGTATTG,0.15 kcal/mol
8,TTAGACACGTGCATTG,0.06 kcal/mol
9,TGGAGCACGTGGGCTT,-0.19 kcal/mol
10,TTCGGCACGTGTCAGT,-0.11 kcal/mol
11,ATAGGCACGTGGTCTA,-0.25 kcal/mol
12,TGAGACACGTGGTAAT,0.07 kcal/mol
13,AAGTGCACGTGTGCTT,-0.08 kcal/mol
14,TATTACACGTGTCGGT,0.14 kcal/mol
15,GTTGCCACGTGAGGGA,0.19 kcal/mol
16,AGGTCCACGTGGTATG,-0.1 kcal/mol
17,ATATACACGTGGGTGC,-0.07 kcal/mol
18,TAAGCCACGTGCGGTT,0.04 kcal/mol
19,GTATACACGTGATGTC,0.35 kcal/mol
20,TGGCTCACGTGGCGGA,0.07 kcal/mol
21,TAGAGCACGTGTAATA,0.07 kcal/mol
22,TATTTCACGTGGTTGT,0.28 kcal/mol
23,ACGTTCACGTGGTAGT,0.21 kcal/mol

row,Sequence,relative binding free energy
1,GTGATCACGTGTGAAT,0.26 kcal/mol
2,ATGATCACGTGTCTGT,0.11 kcal/mol
3,GGCGACACGTGGGAGC,0.16 kcal/mol
4,GGTAGCACGTGGTGGT,-0.02 kcal/mol
5,TTGAGCACGTGAGGGG,0.14 kcal/mol
6,GGTCACACGTGGTTGT,-0.06 kcal/mol
7,TATCACACGTGTTTGT,-0.06 kcal/mol
8,CGTGGCACGTGGGGCC,-0.39 kcal/mol
9,ATGTCCACGTGGGGTG,-0.05 kcal/mol
10,CTGGACACGTGGTAAT,0.06 kcal/mol
11,AGTGGCACGTGTTATG,-0.05 kcal/mol
12,GAATTCACGTGTAGGT,0.33 kcal/mol
13,TCTGTCACGTGGGTAT,0 kcal/mol
14,CTGTACACGTGTGATT,0.17 kcal/mol
15,TTGTCCACGTGGGTTA,0 kcal/mol
16,AACTGCACGTGGTGGG,-0.14 kcal/mol
17,GATATCACGTGTATGG,0.07 kcal/mol
18,TAAATCACGTGGAGTT,0.24 kcal/mol
19,TGAGGCACGTGAAGAT,0.32 kcal/mol
20,GGGCGCACGTGATTGG,0.15 kcal/mol
21,TTTTACACGTGGAGCA,0.12 kcal/mol
22,ATTTGCACGTGATGCG,0.15 kcal/mol
23,CTTATCACGTGTGGGG,0.23 kcal/mol

row,Sequence,relative binding free energy
1,TGTGTCACGTGCGAAG,0.04 kcal/mol
2,ATTGTCACGTGACATG,0.12 kcal/mol
3,ATATGCACGTGGTTAA,-0.12 kcal/mol
4,TATTGCACGTGATGGA,0.05 kcal/mol
5,AGTTTCACGTGTAGCG,0.23 kcal/mol
6,GTATACACGTGGCGTG,-0.11 kcal/mol
7,TGTGGCACGTGGTAAG,-0.16 kcal/mol
8,GGGGTCACGTGCACGT,0.03 kcal/mol
9,AGCATCACGTGTGGTA,0.24 kcal/mol
10,GGCATCACGTGTCGGG,0.33 kcal/mol
11,TTTGACACGTGAGATT,0.18 kcal/mol
12,TACTTCACGTGGGGAG,0.23 kcal/mol
13,AAAATCACGTGTTTTA,0.15 kcal/mol
14,CTGCACACGTGGTGTG,-0.09 kcal/mol
15,TTACGCACGTGAGGTT,0.3 kcal/mol
16,TGCGGCACGTGGTCGT,-0.27 kcal/mol
17,TCTGGCACGTGGAGGT,-0.11 kcal/mol
18,CTGTGCACGTGGCGGG,-0.02 kcal/mol
19,TGCTACACGTGGGATT,0.03 kcal/mol
20,TGTACCACGTGAGTTT,0.11 kcal/mol
21,TTATTCACGTGTGAAT,0.27 kcal/mol
22,CAGGCCACGTGTGTGG,-0.04 kcal/mol
23,TTGGACACGTGGTGAG,-0.01 kcal/mol
